Laboratory results: the antibiotic and cytotoxicity screens of Wong et al. (2023)
This is one part of the list.

The molecules below were run on S. aureus RN4220 (assay: growth inhibition call (relative growth <= 0.2)). Details: 50 µM.

Growth inhibition call, inactive:
C[C@H]1CN([C@@H](C)CO)C(=O)CCCn2nncc2CO[C@H]1CN(C)S(=O)(=O)c1ccc(Oc2ccccc2)nc1, O=C(C[C@H]1NC(=O)NC1=O)Nc1ccccc1, Cc1ccc(S(=O)(=O)N(C)C[C@H]2Oc3ccc(NC(=O)C4CC4)cc3C(=O)N([C@@H](C)CO)C[C@H]2C)cc1, Cc1noc(C)c1NC(=O)N(C)C[C@@H]1Oc2c(NC(=O)NC(C)C)cccc2C(=O)N([C@H](C)CO)C[C@@H]1C, Cc1noc(C)c1NC(=O)N(C)C[C@H]1Oc2ccc(NC(=O)Nc3cccc4ccccc34)cc2CC(=O)N([C@@H](C)CO)C[C@H]1C, OCCN1CCCNCC1, [O-]/[N+](=N\O[C@H]1O[C@H](CO)[C@@H](O)[C@H](O)[C@@H]1O)N1CCCC1, C[C@H]1CN([C@@H](C)CO)C(=O)c2cccc(NC(=O)Nc3ccc(C(F)(F)F)cc3)c2O[C@H]1CN(C)C(=O)Nc1ccc(F)cc1, Cc1noc(C)c1S(=O)(=O)Nc1cccc2c1O[C@H](CN(C)S(=O)(=O)c1cccs1)[C@H](C)CN([C@@H](C)CO)C2=O, C[C@H](CO)N1C[C@H](C)[C@@H](CN(C)C(=O)Nc2ccc3c(c2)OCO3)OCCCC[C@H](C)Oc2ccc(NC(=O)Cc3ccccc3)cc2C1=O, C[C@H]1CN([C@@H](C)CO)C(=O)c2cc(C#CCN(C)C)cnc2O[C@@H]1CN(C)C(=O)CCN1CCCCC1, C[C@H](CO)N1C[C@H](C)[C@@H](CN(C)Cc2ccc(Oc3ccccc3)cc2)Oc2ccc(NC(=O)Nc3ccc(F)cc3)cc2CC1=O
